Measured values published in PMC8357826, “The extracellular chaperone Clusterin enhances Tau aggregate seeding in a cellular model” (Nature Communications, 2021).

B1: cysteine-free TauRD (Tau repeat domain, […], C291A/P301L/C322A/V337M) (domain or fragment)
chain: not shown
notes: Tau repeat domain, Tau […]; Used as monomer (0 h) and as heparin-induced aggregates (10 µM TauRD, 2.5 µM heparin, 2 mM MgCl2, 37 °C); the assays tell the states apart; also called unlabeled TauRD; source: E. coli BL21(DE3), purified (Ni-NTA, Usp2 cleavage, Source30S cation exchange, Superdex-75 SEC); not shown: His6-ubiquitin, N-terminal, cleaved
B2: TauRD-I260C labeled with Alexa Fluor 532 (TauRD-A532; Tau […], I260C/C291A/P301L/C322A/V337M) (domain or fragment)
chain: not shown
modifications: Alexa Fluor 532 (C5 maleimide) on cysteine 260
notes: Tau repeat domain, Tau […]; In the dcFCCS experiments 1 µM TauRD-A532 was mixed with 9 µM unlabeled TauRD, so the aggregates hold both; also called labeled TauRD; source: E. coli BL21(DE3), purified (Ni-NTA, Usp2 cleavage, Source30S cation exchange, Superdex-75 SEC with 1 mM TCEP); labeled with Alexa532 C5 maleimide; not shown: His6-ubiquitin, N-terminal, cleaved

Experiments:
[1] = molecular target: the molecule itself; test: co-sedimentation; TauRD aggregation reactions (10 µM TauRD, 2.5 µM heparin, 2 mM MgCl2, 37 °C, 850 rpm) without or with equimolar Clu present from the start; centrifuged at 16,100 × g, 4 °C, 1 h; total, supernatant and pellet quantified by immunoblot
[2] = molecular target: T1, Clusterin (Clu; apolipoprotein J), recombinant with Strep tag (CluStrep) (human, UniProt P10909 23-227; P10909 228-449, N-glycosylated | N-glycosylated); test: dual-color fluorescence cross-correlation spectroscopy (dcFCCS); excess unlabeled Clu added to TauRD-A532/Clu-A647 complexes; FCCS signal followed; conditions: both partners purified
T1 construct: Clusterin beta chain, cut from the precursor in the secretory pathway and disulfide-linked to the alpha chain; Clusterin alpha chain, cut from the precursor in the secretory pathway and disulfide-linked to the beta chain; Clu cDNA amplified from HEK293T cells; 'Clu followed by a strep tag'; Purification protocol: protocols.io 10.17504/protocols.io.bvvkn64w; also called Clusterin-Strep tag; …

[3] = molecular target: T2, Clusterin labeled with Alexa Fluor 647 (Clu-A647) (human, UniProt P10909 23-227; P10909 228-449, Alexa Fluor 647 on the N-terminus (NHS ester); N-glycosylated | Alexa Fluor 647 on the N-terminus (NHS ester); N-glycosylated); test: dual-color fluorescence cross-correlation spectroscopy (dcFCCS); whole aggregation reaction (1 µM TauRD-A532, 9 µM unlabeled TauRD, 1.25 µM Clu-A647) from 1.5-2 h after initiation of aggregation (ThT-positive TauRD aggregates); diluted 100-fold in PBS before measurement; conditions: both partners purified
T2 construct: Clusterin beta chain, cut from the precursor in the secretory pathway and disulfide-linked to the alpha chain; Clusterin alpha chain, cut from the precursor in the secretory pathway and disulfide-linked to the beta chain; labeling efficiency typically about 65-70%; also called labeled Clu; source: HEK293-EBNA suspension cells (HEK293E-CluStrep), secreted, purified; labeled with Alexa647 NHS ester

Row | Binder | binding result [1] | binding result [2] | binding result [3]
1 | B1 | binds | – | –
2 | B2 | – | binds | binds
